Among the data in the supplement of paper PMC4967469 are AUC and IC50 values, retold here.

IC50 is the fitted dose that halves viability relative to control wells, and lower means more sensitive; fits outside the tested doses are given as limits. AUC, from the same fit, is the share of area under the viability curve across the 256-fold dose range; the more sensitive the line, the further below 1.

Compound in the test: CC[C@H](Nc1ncnc2[nH]cnc12)c1nc2cccc(F)c2c(=O)n1-c1ccccc1 [CAL-101]
Kind of test: Viability of human cancer cell lines after 72 h of drug (GDSC screen). The method, then:
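Human cancer cell lines in 384-well plates, medium with 10% serum, drug for 72 h over a 256-fold dose range (nine 2-fold or five 4-fold steps up to the top dose). Adherent lines were fixed and stained with the nucleic acid dye Syto60, suspension lines read with resazurin; signal relative to control wells, capped at 0 and 100%. One two-parameter sigmoid per drug and line, fitted in a mixed model over all curves with the slope shared within a line.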

Turning to “BE2-M17 (neuroblastoma, adherent, top dose 20 µM)”, the AUC came out at 0.979 and the 50% inhibitory concentration (IC50) is greater than 20 µM.
Consider “BE-13 (lymphoblastic leukaemia, suspension, top dose 20 µM)”, for which the AUC worked out at 0.952 and the IC50 was greater than 20 µM.
The corresponding values for “BEN (non-small cell lung carcinoma, adherent, top dose 20 µM)” are 0.978 and greater than 20 µM.
Regarding “BFTC-905 (bladder, adherent, top dose 20 µM)”, the AUC came to 0.968 and the IC50 is greater than 20 µM.
For “BFTC-909 (kidney, adherent, top dose 20 µM)”, the AUC worked out at 0.987 and the half-inhibitory concentration (IC50) is greater than 20 µM.
With “BHT-101 (thyroid, adherent, top dose 20 µM)”, the AUC is 0.953 and the IC50 was greater than 20 µM.
On to “BHY (head and neck, adherent, top dose 20 µM)”, for which the AUC was 0.946 and the IC50 is greater than 20 µM.
On the same counts, the results for “BICR10 (head and neck, adherent, top dose 20 µM)” are 0.985 and greater than 20 µM.
As for “BICR22 (head and neck, adherent, top dose 20 µM)”, the AUC came out at 0.97 and the IC50 is greater than 20 µM.
Regarding “BICR31 (head and neck, adherent, top dose 20 µM)”, the AUC was found to be 0.952 and the 50% inhibitory concentration (IC50) was greater than 20 µM.
On the same counts, the results for “BICR78 (head and neck, adherent, top dose 20 µM)” are 0.975 and greater than 20 µM.
On the same counts, the results for “BL-41 (Burkitt lymphoma, suspension, top dose 20 µM)” are 0.723 and 4.47 µM.
On the same counts, the results for “BPH-1 (prostate, adherent, top dose 20 µM)” are 0.757 and 7.55 µM.
As to “BT-20 (breast, adherent, top dose 20 µM)”, the AUC came to 0.98 and the IC50 is greater than 20 µM.
As to “BT-474 (breast, adherent, top dose 20 µM)”, the AUC came out at 0.933 and the half-maximal inhibitory concentration (IC50) is greater than 20 µM.
On the same counts, the results for “BT-483 (breast, adherent, top dose 20 µM)” are 0.926 and greater than 20 µM.
On the same counts, the results for “BV-173 (chronic myeloid leukaemia, suspension, top dose 20 µM)” are 0.961 and greater than 20 µM.
The corresponding values for “Becker (glioma, adherent, top dose 20 µM)” are 0.866 and greater than 20 µM.
For the cell line “BxPC-3 (pancreas, adherent, top dose 20 µM)”, the AUC is 0.959 and the IC50 is greater than 20 µM.
As to “C2BBe1 (large intestine, adherent, top dose 20 µM)”, the AUC was 0.958 and the 50% inhibitory concentration (IC50) is greater than 20 µM.
The corresponding values for C3A (liver, adherent, top dose 20 µM) are 0.986 and greater than 20 µM.
Turning to “C32 (melanoma, adherent, top dose 20 µM)”, the AUC is 0.987 and the IC50 is greater than 20 µM.
As to “C-4-I (cervix, adherent, top dose 20 µM)”, the AUC was determined as 0.986 and the half-maximal inhibitory concentration (IC50) is greater than 20 µM.
On to “C-33-A (cervix, adherent, top dose 20 µM)”, for which the AUC was determined as 0.979 and the IC50 is greater than 20 µM.
On the same counts, the results for “CA46 (Burkitt lymphoma, suspension, top dose 20 µM)” are 0.872 and greater than 20 µM.
On the same counts, the results for “CADO-ES1 (Ewing sarcoma, suspension, top dose 20 µM)” are 0.94 and greater than 20 µM.
On the same counts, the results for “CAKI-1 (kidney, adherent, top dose 20 µM)” are 0.902 and greater than 20 µM.
On to “CAL-12T (non-small cell lung carcinoma, adherent, top dose 20 µM)”, for which the AUC was found to be 0.924 and the 50% inhibitory concentration (IC50) is greater than 20 µM.
The corresponding values for “CAL-27 (head and neck, adherent, top dose 20 µM)” are 0.949 and greater than 20 µM.
On to “CAL-29 (bladder, adherent, top dose 20 µM)”, for which the AUC is 0.972 and the half-inhibitory concentration (IC50) is greater than 20 µM.
The corresponding values for “CAL-33 (head and neck, adherent, top dose 20 µM)” are 0.964 and greater than 20 µM.
With “CAL-39 (cervix, adherent, top dose 20 µM)”, the AUC is 0.983 and the half-maximal inhibitory concentration (IC50) is greater than 20 µM.
For “CAL-51 (breast, adherent, top dose 20 µM)”, the AUC was found to be 0.985 and the half-inhibitory concentration (IC50) is greater than 20 µM.
Turning to “CAL-54 (kidney, adherent, top dose 20 µM)”, the AUC was found to be 0.95 and the IC50 was greater than 20 µM.
On the same counts, the results for “CAL-62 (thyroid, adherent, top dose 20 µM)” are 0.982 and greater than 20 µM.
On the same counts, the results for “CAL-72 (osteosarcoma, adherent, top dose 20 µM)” are 0.984 and greater than 20 µM.
The corresponding values for “CAL-78 (chondrosarcoma, adherent, top dose 20 µM)” are 0.986 and greater than 20 µM.
As to “CAL-85-1 (breast, adherent, top dose 20 µM)”, the AUC turned out to be 0.959 and the IC50 is greater than 20 µM.
“CAL-120 (breast, adherent, top dose 20 µM)”: the AUC was found to be 0.903 and the half-inhibitory concentration (IC50) was greater than 20 µM.
As for “CAL-148 (breast, suspension, top dose 20 µM)”, the AUC was 0.987 and the 50% inhibitory concentration (IC50) was greater than 20 µM.
For “CAMA-1 (breast, adherent, top dose 20 µM)”, the AUC was 0.966 and the IC50 is greater than 20 µM.
“CAPAN-1 (pancreas, adherent, top dose 20 µM)”: the AUC stood at 0.969 and the half-maximal inhibitory concentration (IC50) was greater than 20 µM.
For “CAS-1 (glioma, adherent, top dose 20 µM)”, the AUC turned out to be 0.98 and the IC50 was greater than 20 µM.
On the same counts, the results for “CCF-STTG1 (glioma, adherent, top dose 20 µM)” are 0.98 and greater than 20 µM.
Consider “CCK-81 (large intestine, adherent, top dose 20 µM)”, for which the AUC was determined as 0.94 and the half-maximal inhibitory concentration (IC50) is greater than 20 µM.
In the case of “CCRF-CEM (lymphoblastic leukaemia, suspension, top dose 20 µM)”, the AUC turned out to be 0.739 and the IC50 was 5.24 µM.
Regarding “CESS (acute myeloid leukaemia, suspension, top dose 20 µM)”, the AUC turned out to be 0.782 and the half-maximal inhibitory concentration (IC50) is 7.11 µM.
Consider “CFPAC-1 (pancreas, adherent, top dose 20 µM)”, for which the AUC came to 0.961 and the half-inhibitory concentration (IC50) is greater than 20 µM.
For the cell line “CGTH-W-1 (thyroid, adherent, top dose 20 µM)”, the AUC amounted to 0.974 and the IC50 is greater than 20 µM.
Take “CHL-1 (melanoma, adherent, top dose 20 µM)”: the AUC was 0.897 and the concentration for half-maximal inhibition (IC50) is greater than 20 µM.
On the same counts, the results for “CHP-134 (neuroblastoma, suspension, top dose 20 µM)” are 0.98 and greater than 20 µM.

The IC50 is the point on the concentration scale where inhibition reaches its midpoint.
